From patent publication US20230174610A1 (Harvard, published 2023)

T1: RXFP1 receptor expressed by transient transfection in HEK293T cells (UniProt Q9HBX9 1-757, limits assumed)
T1 sequence (looked up): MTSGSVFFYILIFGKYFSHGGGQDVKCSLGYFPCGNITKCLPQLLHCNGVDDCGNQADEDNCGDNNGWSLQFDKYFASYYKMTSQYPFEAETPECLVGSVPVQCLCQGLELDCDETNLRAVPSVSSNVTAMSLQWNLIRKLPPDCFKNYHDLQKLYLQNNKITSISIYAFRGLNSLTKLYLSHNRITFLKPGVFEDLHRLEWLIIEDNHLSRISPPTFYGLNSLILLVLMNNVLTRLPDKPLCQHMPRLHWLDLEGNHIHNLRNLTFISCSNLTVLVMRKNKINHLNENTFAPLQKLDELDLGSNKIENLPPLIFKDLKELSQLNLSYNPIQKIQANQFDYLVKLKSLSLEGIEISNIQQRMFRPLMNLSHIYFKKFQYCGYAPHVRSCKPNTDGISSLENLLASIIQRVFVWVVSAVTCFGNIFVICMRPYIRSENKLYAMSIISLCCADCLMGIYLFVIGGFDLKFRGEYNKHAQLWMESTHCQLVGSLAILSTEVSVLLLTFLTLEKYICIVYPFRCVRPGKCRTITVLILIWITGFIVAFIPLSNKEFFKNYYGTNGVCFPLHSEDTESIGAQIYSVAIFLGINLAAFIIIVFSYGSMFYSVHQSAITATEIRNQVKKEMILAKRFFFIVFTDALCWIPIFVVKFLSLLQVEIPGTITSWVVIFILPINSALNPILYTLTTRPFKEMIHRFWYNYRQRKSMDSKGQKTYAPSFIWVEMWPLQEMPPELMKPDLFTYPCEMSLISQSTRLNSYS

T2: RXFP1 with an N-terminal FLAG tag, transiently transfected in Expi293F cells (UniProt Q9HBX9 1-757, limits assumed)
T2 construct: whole, on cells; not shown: N-terminal FLAG tag
T2 sequence (looked up): T1 sequence (looked up)

B1: SE102, Single-chain relaxin fused to the C-terminus of human IgG1 Fc v.1 (short linker) (Fc fusion)
chain: [not shown - human IgG1 Fc]GGSDSWMEEVIKLCGRELVRAQIAICGMSTWSDAASSHSHSSARQLYSALANKCCHVGCTKRSLARFC
B2: SE103, Single-chain relaxin fused to the C-terminus of human IgG1 Fc v.2 (long linker) (Fc fusion)
chain: [not shown - human IgG1 Fc]GGSGGSGGSGGSDSWMEEVIKLCGRELVRAQIAICGMSTWSDAASSHSHSSARQLYSALANKCCHVGCTKRSLARFC
B3: SE101, Single-chain relaxin fused to the N-terminus of human IgG1 Fc (Fc fusion)
chain: DSWMEEVIKLCGRELVRAQIAICGMSTWSDAASSHSHSSARQLYSALANKCCHVGCTKRSLARFCGSGGSG[not shown - human IgG1 Fc]
B4: SE201, Single-chain relaxin fused to the C-terminus of human IgG1 Fc v.1 with N77Q Fc substitution (Fc fusion)
chain: [not shown - human IgG1 Fc with changes]GGSDSWMEEVIKLCGRELVRAQIAICGMSTWSDAASSHSHSSARQLYSALANKCCHVGCTKRSLARFC
B5: SE206, Single-chain relaxin fused to the C-terminus of human IgG1 Fc v.1 with N77Q Fc substitution and W28A relaxin substitution (Fc fusion)
chain: [not shown - human IgG1 Fc with changes]GGSDSWMEEVIKLCGRELVRAQIAICGMSTASDAASSHSHSSARQLYSALANKCCHVGCTKRSLARFC
B6: SE205, Single-chain relaxin fused to the C-terminus of human IgG1 Fc v.1 with N77Q Fc substitution and M25K relaxin substitution (Fc fusion)
chain: [not shown - human IgG1 Fc with changes]GGSDSWMEEVIKLCGRELVRAQIAICGKSTWSDAASSHSHSSARQLYSALANKCCHVGCTKRSLARFC
B7: SE204, Single-chain relaxin fused to the C-terminus of human IgG1 Fc v.1 with N77Q Fc substitution and M4K relaxin substitution (Fc fusion)
chain: [not shown - human IgG1 Fc with changes]GGSDSWKEEVIKLCGRELVRAQIAICGMSTWSDAASSHSHSSARQLYSALANKCCHVGCTKRSLARFC
B8: SE301, Single-chain relaxin fused to the C-terminus of human IgG1 Fc with combined substitutions of SE201, SE204-207 (Fc fusion)
chain: [not shown - human IgG1 Fc with changes]GGSDSWKEEVIKLCGRELVRAQIAICGKSTASDAAGANANAGARQLYSALANKCCHVGCTKRSLARFC
B9: SE202, Single-chain relaxin fused to the C-terminus of human IgG1 Fc v.1 with N77Q Fc substitution and AAA linker between relaxin and the Fc (Fc fusion)
chain: [not shown - human IgG1 Fc with changes]AAADSWMEEVIKLCGRELVRAQIAICGMSTWSDAASSHSHSSARQLYSALANKCCHVGCTKRSLARFC
B10: SE203, Single-chain relaxin fused to the C-terminus of human IgG1 Fc v.1 with N77Q Fc substitution and PPP linker between relaxin and the Fc (Fc fusion)
chain: [not shown - human IgG1 Fc with changes]PPPDSWMEEVIKLCGRELVRAQIAICGMSTWSDAASSHSHSSARQLYSALANKCCHVGCTKRSLARFC
B11: SE207, Single-chain relaxin fused to the C-terminus of human IgG1 Fc v.1 with N77Q Fc substitution and redesigned single-chain relaxin linker (Fc fusion)
chain: [not shown - human IgG1 Fc with changes]GGSDSWMEEVIKLCGRELVRAQIAICGMSTWSDAAGANANAGARQLYSALANKCCHVGCTKRSLARFC
B12: SE302, Single-chain relaxin fused to the C-terminus of human IgG1 Fc with combined substitutions of SE201, 204-207 and no linker between the Fc and … (Fc fusion)
chain: [not shown - human IgG1 Fc with changes]DSWKEEVIKLCGRELVRAQIAICGKSTASDAAGANANAGARQLYSALANKCCHVGCTKRSLARFC
B13: SE501, Single-chain relaxin fused to the C-terminus of human IgG1 Fc with combined substitutions of SE301 and A264S (Fc fusion)
chain: [not shown - human IgG1 Fc with changes]GGSDSWKEEVIKLCGRELVRSQIAICGKSTASDAAGANANAGARQLYSALANKCCHVGCTKRSLARFC
B14: SE502, Single-chain relaxin fused to the C-terminus of human IgG1 Fc with combined substitutions of SE301 and A264G (Fc fusion)
chain: [not shown - human IgG1 Fc with changes]GGSDSWKEEVIKLCGRELVRGQIAICGKSTASDAAGANANAGARQLYSALANKCCHVGCTKRSLARFC

What follows are binders tested against T1, RXFP1 receptor expressed by transient … (assay: cell-based or functional assay).

Row | EC50 [nM] | Emax (Native two-chain relaxin = 100% Emax) [%] | Binder
1 | 8.3 | 106 | B1
2 | 17.9 | 93 | B2
3 | 49.4 | 86 | B3
4 | 3.9 | 102 | B4
5 | 3 | 135 | B5
6 | 465 | 130 | B6
7 | 1.5 | 115 | B7
8 | 4.2 | 114 | B8
9 | 4.2 | 109 | B9
10 | 6.3 | 121 | B10
11 | 3.9 | 121 | B11
12 | 4.9 | 81 | B12

Molecular target: T1, RXFP1 receptor expressed by transient …
Test: cell-based or functional assay
Remark: another data set of the same source

Row | EC50 [nM] | Binder
13 | 9.7 | B13
14 | 38.6 | B14

What follows are binders tested against T2, RXFP1 with an N-terminal FLAG tag, … (assay: flow cytometry on Expi293F cells transiently transfected with N-terminal FLAG-tagged RXFP1; detection with anti-human Fc-Alexa 647, MFI against SE301 concentration).
Protocol: The binding affinity of SE301 was determined by a flow cytometry assay with Expi293F cells transiently transfected with either RXFP1 with an N-terminal FLAG tag or empty vector plasmids. Cell culture and transfection were conducted according to the manufacturer's manual. Cells transfected with RXFP1 or the empty vector control were incubated in a buffer of 20 mM HEPES pH 7.5, 150 mM sodium chloride, 2 mM calcium chloride, and 1% fetal bovine serum for 30 minutes at 4° C. Different concentrations of SE301 were added to the cells and incubated for 1 hour at 4° C. Cells were washed twice with buffer and an M1 antibody labeled with Alexa 488 (M1-488) and a secondary anti-human Fc antibody labeled with Alexa 647 (anti-human Fc-647) were incubated with the cells for 30 minutes at 4° C. The cells were washed once, resuspended in 100 μL buffer, and analyzed by flow cytometry. The cells were gated by forward scatter area versus side scatter area and forward scatter area versus forward scatter height. The cells were then gated according to receptor expression indicated by binding of the M1-488 antibody to the receptor's FLAG tag. Cells in the final gate were plotted according to mean fluorescence intensity of the anti-human Fc-647 antibody to calculate the Kd of SE301.

Row | Kd [nM] | Binder
15 | 122 | B8
